Reference: patent US20170101477A1 (Regeneron, published 2017)

Target: T1, human Leptin (R&D Systems, #398-LP) (human, UniProt P41159)
T1 construct: Bought reagent; also called hLeptin; recombinant human leptin
Assay: blocking ELISA: 10 nM hLEPR.hFc pre-incubated with titrated soluble hLeptin, then added to plate-coated hLeptin; bound hLEPR.hFc detected with anti-human IgG-HRP, absorbance at 450 nm
Description: These antibody-protein or protein-protein complexes were then incubated for 1.5 hour at room temperature (RT). […] Samples were developed with a TMB solution (BD Biosciences, #555214; substrate A and B mixed at 1:1 ratio as per manufacturer's instructions) to produce a colorimetric reaction and then neutralized with 1M sulfuric acid before measuring absorbance at 450 nm on a Victor X5 plate reader.

B1: extracellular domain portion of LEPR protein expressed with a C-terminal human Fc tag (hLEPR.hFc) (Fc fusion)
chain: FNLSYPITPWRFKLSCMPPNSTYDYFLLPAGLSKNTSNSNGHYETAVEPKFNSSGTHFSNLSKTTFHCCFRSEQDRNCSLCADNIEGKTFVSTVNSLVFQQIDANWNIQCWLKGDLKLFICYVESLFKNLFRNYNYKVHLLYVLPEVLEDSPLVPQKGSFQMVHCNCSVHECCECLVPVPTAKLNDTLLMCLKITSGGVIFQSPLMSVQPINMVKPDPPLGLHMEITDDGNLKISWSSPPLVPFPLQYQVKYSENSTTVIREADKIVSATSLLVDSILPGSSYEVQVRGKRLDGPGIWSDWSTPRVFTTQDVIYFPPKILTSVGSNVSFHCIYKKENKIVPSKEIVWWMNLAEKIPQSQYDVVSDHVSKVTFFNLNETKPRGKFTYDAVYCCNEHECHHRYAELYVIDVNINISCETDGYLTKMTCRWSTSTIQSLAESTLQLRYHRSSLYCSDIPSIHPISEPKDCYLQSDGFYECIFQPIFLLSGYTMWIRINHSLGSLDSPPTCVLPDSVVKPLPPSSVKAEITINIGLLKISWEKPVFPENNLQFQIRYGLSGKEVQWKMYEVYDAKSKSVSLPVPDLCAVYAVQVRCKRLDGLGYWSNWSNPAYTVVMDIKVPMRGPEFWRIINGDTMKKEKNVTLLWKPLMKNDSLCSVQRYVINHHTSCNGTWSEDVGNHTKFTFLWTEQAHTVTVLAINSIGASVANFNLTFSWPMSKVNIVQSLSAYPLNSSCVIVSWILSPSDYKLMYFIIEWKNLNEDGEIKWLRISSSVKKYYIHDHFIPIEKYQFSLYPIFMEGVGKPKIINSFTQDDIEKHQSD[gap - human IgG1 Fc]
notes: also called dimeric human LEPR
- binding result: binds
